Data published in the RNAGym collection of RNA variant scans (doi:10.1093/nar/gkz1192).
The source gives no read counts; variants with many changes may rest on few reads.

B1: CPEB3 Ribozyme (parent)
chain: UAACAGGGGGCCACAGCAGAAGCGUUCACGUCGCAGCCCCUGUCAGAUUCUGGUGAAUCUGCGAAUUCUGCUGUAUAUCUC

Variants of: B1
Assay: self-cleavage, relative activity (ratio to wild type); higher = more cleavage; in vitro, sequencing
Procedure, shortened: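 Barcoded CPEB3 ribozyme mutants, produced by rounds of error-prone PCR, self-cleaved while being transcribed with T7 RNA polymerase for 5 hours at 37°C and during a subsequent 15 min DNase I step before EDTA was added. Sequencing of template-switched cDNA on Illumina gave cleaved and total reads, and DNA sequencing assigned barcodes to variants. Each variant's relative activity is its cleaved/total read fraction divided by the unmutated ribozyme's fraction, averaged across three batches. A variant needed a minimum of 5 reads.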

Variant	self-cleavage
UAACAGGGGGCCACAGCAGAAGCGUUCACGUCGCGGCCCCUGUCAGGUUCUGGUGAAUCUGCGAAUUCUGCUGUAUAACCC [A35G A47G U78A U80C]	1.21
UAACAGGGGGCCACAGCAGAAGCGUUCACGUCGCGGCCCCUGUCAGUUUCUGGUGAAUCCGCGAGUUCUGCUGUAUAUCUC [A35G A47U U60C A65G]	0.36
UAACAGGGGGCCACAGCAGAAGCGUUCACGUCGCGGCCCCUGUCAGAUUCUGGUGUAUUAGCGAAUCCUGCUGUACAUCUC [A35G A56U C59U U60A U67C U76C]	0.55
UAACAGGGGGCCACAGCAGAAGCGUUCACGUCGCGGCCCCUGUCUGAUCCUGGUGAAUCUGCGAAUUCUGCUGUAUAUCUC [A35G A45U U49C]	0.28
UAACAGGGGGCCACAGCAGAAGCGUUCACGUCGCGGCCCCUGUCGGAUUCUGGUGAAUCUGCGUAUUCUGCUGUAUAUCUC [A35G A45G A64U]	0.93
UAACAGGGGGCCACAGCAGAAGCGUUCACGUCGCGGCCCCUGUCAGGUUCUGGUGAAUCGGCGAAUUCUGCUGUAUAUCUC [A35G A47G U60G]	0.89
UAACAGGGGGCCACAGCAGAAGCGUUCACGUCGCGGCCCCUGUCGGAUUCUGGUGAAUCUGCUAAUUCUGCUGUAUAUCUC [A35G A45G G63U]	1.14
UAACAGGGGGCCACAGCAGAAGCGUUCACGUCGCGGCCCCUGUCAGAUUCUGGUGGAACUGCGAGUUCCGCUGUAAAUCUC [A35G A56G U58A A65G U69C U76A]	0.9
UAACAGGGGGCCACAGCAGAAGCGUUCACGUCGCGGCCCCUGUCGGAUUCUGGUGAAUCUGCGAAUUCUGCCGUGUAUCUC [A35G A45G U72C A75G]	1.27
UAACAGGGGGCCACAGCAGAAGCGUUCACGUCGCGGCCCCUGUCAGGUUCUGGUUAAUCUGCGAAUUCUGCUGUUUAUCUC [A35G A47G G55U A75U]	1.17
UAACAGGGGGCCACAGCAGAAGCGUUCACGUCGCGGCCCCUGUCAGAUUCUGGUGGAUCUGCGGAUUCUGCUGUAUAUCUC [A35G A56G A64G]	1.01
UAACAGGGGGCCACAGCAGAAGCGUUCACGUCGCGGCCCCUGUCGGAUUCUGGCGAAUCUGCGAAUUCAGCUGUAUAUCUC [A35G A45G U54C U69A]	1.12
UAACAGGGGGCCACAGCAGAAGCGUUCACGUCGCGGCCCCUGUCGGAUUCUGGUGAACCUGCGAAUUCUGCUGUAUAUCUC [A35G A45G U58C]	0.93
UAACAGGGGGCCACAGCAGAAGCGUUCACGUCGCGGCCCCUGUCUGACUCUGGUGAAUCUGCGAAUUCUGCUGUAUAUCUC [A35G A45U U48C]	0.4
UAACAGGGGGCCACAGCAGAAGCGUUCACGUCGCGGCCCCUGUCAGAUUCUGGUGCAUCUGCGAAUUCUGCUGUAUGUCUC [A35G A56C A77G]	1.25
UAACAGGGGGCCACAGCAGAAGCGUUCACGUCGCGGCCCCUGUCGGAUUCUGGUGAACCUGCGAAUUCUGCUGUAUAUCCC [A35G A45G U58C U80C]	1
UAACAGGGGGCCACAGCAGAAGCGUUCACGUCGCGGCCCCUGUCAGAUUCUGGUGGAUCAGCGAAUUCUGCUGUAUAUCUC [A35G A56G U60A]	1.12

Variant	self-cleavage
UAACAGGGGGCCACAGCAGAAGCGUUCACGUCGCGGCCCCUGUCAGAUUCUGGUGUAACUGCGAAUUCUGCUGUAUAUCUC [A35G A56U U58A]	0.83
UAACAGGGGGCCACAGCAGAAGCGUUCACGUCGCGGCCCCUGUCAGGUUCUGGUGACUCUGCGAAUUCUGCUGUAUAUCUC [A35G A47G A57C]	1.05
UAACAGGGGGCCACAGCAGAAGCGUUCACGUCGCGGCCCCUGUCAGUUUCUGGCGAAUCUGCGAAUUCUGCCGUAUAUCUC [A35G A47U U54C U72C]	0.98
UAACAGGGGGCCACAGCAGAAGCGUUCACGUCGCGGCCCCUGUCAGAUUCUGGUGGAUCUGCGAACUCCGCUGUAUAACUC [A35G A56G U66C U69C U78A]	0.77
UAACAGGGGGCCACAGCAGAAGCGUUCACGUCGCGGCCCCUGUCAGUUUCUGGUGAAUCUGCGAACUCUGCUGUACAUCUC [A35G A47U U66C U76C]	1.1
UAACAGGGGGCCACAGCAGAAGCGUUCACGUCGCGGCCCCUGUCAGAUUCUGGUGGAUCAGCGAAUUCUGCUGUAUACCUC [A35G A56G U60A U78C]	0.94
UAACAGGGGGCCACAGCAGAAGCGUUCACGUCGCGGCCCCUGUCUGGUUCUGGUGAAUCUGCGAAUUCUGCUGUAUAUCGC [A35G A45U A47G U80G]	0.85
UAACAGGGGGCCACAGCAGAAGCGUUCACGUCGCGGCCCCUGUCAGGUUCUGGUGAAUCAGCGAGUUCUGCUGUAUAUCUC [A35G A47G U60A A65G]	0.71
UAACAGGGGGCCACAGCAGAAGCGUUCACGUCGCGGCCCCUGUCUGAUUCUGGUGAAUCUACGAAUUCUGCUGUAUAUCUC [A35G A45U G61A]	1.13
UAACAGGGGGCCACAGCAGAAGCGUUCACGUCGCGGCCCCUGUCAGGUUCAGGUGAAUCUGCGAAUUCUGCUGUAUAUCUC [A35G A47G U51A]	1.17
UAACAGGGGGCCACAGCAGAAGCGUUCACGUCGCGGCCCCUGUCAGAUUCUGGUGGUUCCGCGAAUUCUGCUGUAUAUCUC [A35G A56G A57U U60C]	0.54
UAACAGGGGGCCACAGCAGAAGCGUUCACGUCGCGGCCCCUGUCUGAUUCUGGUGAACCUGCGAAUUCUGCUGUAUAUCUC [A35G A45U U58C]	0.59
UAACAGGGGGCCACAGCAGAAGCGUUCACGUCGCGGCCCCUGUCAGAUUCUGGUGGAUCUGCGAAUUCUGCUGUAAAUCUC [A35G A56G U76A]	1.28
UAACAGGGGGCCACAGCAGAAGCGUUCACGUCGCGGCCCCUGUCAGUUUCUGGUGAAUCUGCGAAUUCUGCCGUAUAUCUC [A35G A47U U72C]	1.09
UAACAGGGGGCCACAGCAGAAGCGUUCACGUCGCGGCCCCUGUCAGUUUCUGGUGAAUCUGCGAACUCUGCUGUAUAUCUC [A35G A47U U66C]	0.8
UAACAGGGGGCCACAGCAGAAGCGUUCACGUCGCGGCCCCUGUCGGAUUCUGGUGAAUCUGGGAAUUCUGCUGUAUAUCUC [A35G A45G C62G]	0.33
UAACAGGGGGCCACAGCAGAAGCGUUCACGUCGCGGCCCCUGUCAGAUUCUGGUGUAUCUGCGAAUCCUGCUGUAUAUCUC [A35G A56U U67C]	0.63
